Experimental data reported in patent US10294303B2, “Method of treating or ameliorating metabolic disorders using binding proteins for gastric inhibitory peptide receptor (GIPR) in combination with GLP-1 agonists” (AMGEN INC., priority 2015, dated 2019).

What was measured:
[1] = tested on: C57BL/6 Diet-Induced Obese mice; test: Chronic treatment of diet induced obese mice with GIPR antibody 5G12.006; type: in vivo, mouse; details: DIO mice dosed each week for 4 weeks
Procedure: The study design is outlined in FIG. 18. Male C57BL/6 Diet-Induced Obese mice (Jackson Lab), 18 weeks old at start (on high fat diet for 12 weeks) were randomized based on body weight. Mice were dosed each week for 4 weeks. Body weights were recorded twice a week; not fasted glucose measured on day 18 and fasted insulin measured on day 29. Terminal blood collected for measurement of total cholesterol, and triglycerides. Intraperitoneal glucose tolerance test (IPGTT) was performed on day 25 with 4 hour fast with 1 g/kg of glucose. After 4 weeks, study was terminated following a 4 hour fast. Serum samples were collected and livers were weighed. Blood was collected from tail vein or cardiac puncture at termination. Serum samples were obtained by centrifugation of blood collection tubes at 10000 rpm. Serum insulin levels were determined by using mouse high range insulin ELISA (ALPCO Diagnostics). The triglyceride levels were measured using an Infinity triglyceride assay kit (Thermo Scientific). Total cholesterol was measured using an Infinity total cholesterol kit (Thermo Scientific). At termination, liver and epididymal fat were isolated and weighed using a balance.

C57BL/6 DIO mice = test: Mouse pharmacodynamic assay to test GIPR antibody 5G12.006; type: in vivo
Procedure: FIG. 16 provides an overview of the mouse pharmacodynamic assay to test anti-GIPR Antibodies. Male C57BL/6 DIO mice at 16 weeks old were purchased from Jackson laboratory. After arrival, mice were single housed and continued on high fat diet (60 kcal % fat, Research diet) for 2 weeks before pharmacological study. Four days before the start of treatments, 4 h fasting glucose and insulin were measured. Body weight was recorded twice a week during the week before the treatments start and the day of start. […] All treatments were administrated once a week intraperitoneally for four weeks. Body weight was measured twice a week.

B1: 5G12.006: anti-GIPR antibody, 5G12 family; binds to both murine and human GIPR (antibody)
heavy: QVQLVESGGGVVQPGRSLRLSCTASGFTFSSYGIHWVRQAPGKGLEWVAVIWYDGSNKFHADSVKGRFTISRDNSKNTLYLQMNSLRAEDSAMYFCARGKVAGMPEAFEIWGQGTKVTVSSASTKGPSVFPLAPSSKSTSGGTAALGCLVKDYFPEPVTVSWNSGALTSGVHTFPAVLQSSGLYSLSSVVTVPSSSLGTQTYICNVNHKPSNTKVDKKV[human IgG1 Fc with R292C N297G V302C (EU numbers) not written out]
light: DIQLTQSPSSLSASVGDRVTITCRASQTISRFLNWYQQKPGKAPELLIYVASSLQSGVPSRFSGSGSGTDFTLTISSLQPEDFATYYCQQSYSTLISFGQGTKLEITRTVAAPSVFIFPPSDEQLKSGTASVVCLLNNFYPREAKVQWKVDNALQSGNSQESVTEQDSKDSTYSLSSTLTLSKADYEKHKVYACEVTHQGLSSPVTKSFNRGEC
In the case of B1, the body weight gain ([1]; FIG. 19) is reported as “reduced body weight gain”, the liver weights ([1]; FIG. 22) is reported as “lower liver weights” and the “glucose tolerance (IPGTT)” value ([1]; day 25, 4 hour fast, 1 g/kg glucose, FIG. 20) is reported as “improved glucose tolerance”. The insulin levels ([1]; fasted, day 29, FIG. 21B) was “lower”, the glucose levels ([1]; not fasted, day 18, FIG. 21A) was “lower glucose” and the total cholesterol levels ([1]; terminal blood, FIG. 23A) was “Lower”. For the same molecule, the triglyceride levels ([1]; terminal blood, FIG. 23B) was “Lower”, the GIP glucose levels (C57BL/6 DIO mice; FIG. 17A) was “Antagonized” and the “GIP induced insulin secretion” value (C57BL/6 DIO mice; FIG. 17B) was “Antagonized”.
